Measured values taken from PubChem BioAssay AID651820 (National Center for Advancing Translational Sciences (NCATS), 2012).
Hit rate of the full screen: of about 340,000 compounds, about 12,000 (3.5%) were called active. The inconclusive results got no clear call from the source; some entries with a clear call stand among them for comparison. Calls come from the whole dose curve; as a rule, active = well fitted inhibition curve with a large enough effect; inconclusive = small, poorly fitted or top-dose-only effect, or another doubt; inactive = no such curve, though single readings can be large or run the other way. No potency is given beside an inconclusive call; the fits are too rough.

Test: qHTS Assay for Inhibitors of Hepatitis C Virus (HCV)
Details: Huh7.5.1 HCVcc-Cre (HCVcc is cell-culture hepatitis C virus) infection, luciferase reporter, 44 h; activity change, negative = inhibition: at 41.8 µM (top of the series) unless noted
Outline: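 Seed cells (1,000/well) for 4 h; treat with compound and infect with HCVcc-Cre, moi about 0.5. Incubate 44 h, then detect luciferase activity.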
% is set by controls: 0 for no effect and ±100 for the full control effect; potency is the fitted concentration of half-maximal effect; tags give direction and shape of the fitted curve.

| Compound | activity change, negative = inhibition | Potency |
| --- | --- | --- |
| COC(=O)c1cc(Br)c(=O)n(CC(C)C)c1 | inactive: -16.8% | – |
| CC(C)Cn1c(SC(C)C(=O)Nc2ccc(N3CCOCC3)cc2)nc2ccccc21 (centres undefined) | – | inconclusive [inhibitor, partial curve, poor fit] |
| O=C(c1ccc(Cn2cc(Br)cn2)cc1)N1CCN(c2ccccc2)CC1 | – | inconclusive [inhibitor, single point] |
| Nc1ncnc2c(C3OC(CO)C(O)C3O)c[nH]c12 (centres undefined) | – | inconclusive [inhibitor, full curve, poor fit] |
| COC(=O)c1ccc(/C=N/OCC(=O)NC2CCCCCCC2)cc1 | – | inconclusive [inhibitor, single point] |
| COc1ccc(S(=O)(=O)N2CCCCCC2)cc1C(=O)N(C)Cc1cccs1 | – | inconclusive [inhibitor, single point] |
| O=C(N/N=C/c1ccc([N+](=O)[O-])o1)c1ccncc1 | – | inconclusive [inhibitor, single point] |
| Cc1cccc(C2Nc3cccc4cccc(c34)N2)c1 | inactive: -1.5% | – |
| CSc1c(CC(=O)Nc2ccc(F)cc2)n(Cc2ccccc2)c2ccccc12 | inactive: 10.9% | – |
| Cc1cc(C)cc(NC(=O)CS(=O)(=O)c2cccc3nsnc23)c1 | – | inconclusive [inhibitor, partial curve, poor fit] |
| O=C1OCCN1C(=O)[C@H]1[C@H](c2ccc([N+](=O)[O-])cc2)C(c2ccccc2)=NN1c1ccc(Br)cc1 | – | inconclusive [inhibitor, partial curve, poor fit] |
| CCC(=O)NCCCc1nc2ccccc2n1Cc1ccccc1F | inactive: 9.37% | – |
| Cc1c(Cl)cccc1NC(=O)CNC(=O)C1CC(=O)N(C2CCCC2)C1 (centres undefined) | inactive: 1.55% | – |
| O=C(CSc1nccn1-c1ccc(Cl)cc1)Nc1ccc2c(c1)OCO2 | – | inconclusive [inhibitor, full curve, poor fit] |
| CCc1c(C)nc2cc(-c3cc(OC)cc(OC)c3)nn2c1N1CCCC1 | – | inconclusive [inhibitor, partial curve] |
| CC(=O)OCCCCCCCCCCC[N+]1(C)CCCCC1 | inactive: 14.4% | – |
| Cc1nc(Nc2nc3c(c(=O)[nH]2)CCC3)nc2ccccc12 | – | inconclusive [inhibitor, single point] |
| O=C(CSc1nc2ncc(Cl)cc2[nH]1)Nc1ccccc1-c1ccccc1 | – | inconclusive [inhibitor, single point] |
| COc1ccccc1CNC(=O)c1cc(-c2ccccc2)nn1Cc1cc(C)no1 | – | inconclusive [inhibitor, partial curve] |
| Cc1ccsc1/C=N/Nc1cccc(C(=O)O)c1 | inactive: 23.7% | – |
| CSc1cccc(NC(=S)N(CCN(C)C)C(C)c2ccncc2)c1 (centres undefined) | – | inconclusive [inhibitor, single point] |
| CC(C)NCC(O)Cn1c2c(c3ccccc31)CCc1c-2cnn1-c1ccccc1 (centres undefined) | – | inconclusive [inhibitor, single point] |
| CCCCNC(=O)CSc1nc2ccccc2c(=O)n1Cc1ccc2c(c1)OCO2 | – | inconclusive [inhibitor, partial curve] |

| Compound | activity change, negative = inhibition | Potency |
| --- | --- | --- |
| COc1ccc(Nc2nc(NCCCN3CCOCC3)nc(N)c2[N+](=O)[O-])cc1 | inactive: -15.6% | – |
| O=C(CSc1ncn[nH]1)Nc1nc(-c2ccccc2)cs1 | – | inconclusive [inhibitor, full curve] |
| CCCc1cc(C(N)=O)c(NC(=O)c2ccoc2C)s1 | – | active: 7.08 µM |
| O=c1c(Cl)c(Cl)cnn1Cc1ccc(F)cc1 | – | active: 8.91 µM |
| CCOc1ccccc1NC(=O)CSc1nnc(Cn2c(=O)sc3ccccc32)n1C | – | inconclusive [inhibitor, single point] |
| O=C1CC(c2ccccc2)CC(O)=C1C=Nc1ccc(O)cc1 (centres undefined) | inactive: -7.86% | – |
| Cc1cccc(/C=C(\c2nc3ccccc3[nH]2)S(=O)(=O)c2ccccc2)c1 | – | active: 11.2 µM |
| NC(=O)c1c(NC(=O)c2ccc(S(=O)(=O)N3CCOCC3)cc2)sc2c1CCCCC2 | – | inconclusive [inhibitor, single point] |
| S=C(N/N=C/c1ccc(Cl)c(Cl)c1)Nc1ccccc1Cl | – | inconclusive [inhibitor, single point] |
| COc1ccc(C(=O)N/N=C/c2sc3ccccc3c2O)cc1 | – | inconclusive [inhibitor, full curve] |
| Cc1cccc(OCC(=O)Nc2ccc(N3CCN(S(C)(=O)=O)CC3)cc2)c1 | – | inconclusive [inhibitor, single point] |
| COC(=O)C1=C(c2ccc(OCc3ccccc3)cc2)C[C@@H]2CC[C@H]1N2C(=O)NCCN1CCOCC1 | inactive: -10.5% | – |
| COc1ccc(NS(=O)(=O)c2ccc(OC)c(N(C)S(=O)(=O)c3ccc(Cl)cc3)c2)cc1 | – | inconclusive [inhibitor, full curve, poor fit] |
| N=c1n(CCN2CCOCC2)c2ccccc2n1CC(O)COc1ccccc1 (centres undefined) | inactive: 0.27% | – |
| CCOc1ccc(-c2nnc(-c3cccs3)o2)cc1OCC | – | inconclusive [inhibitor, single point] |
| CC(=O)c1cccc(NC(=O)CSc2nc(C3CC3)nc3ccccc23)c1 | – | inconclusive [inhibitor, full curve, poor fit] |
| O=C(c1ccccc1)N1N=C(c2ccco2)CC1c1cccs1 (centres undefined) | inactive: 2.46% | – |
| COc1ccccc1OCCC(=O)Nc1ccc2c(c1)OCO2 | inactive: -14.7% | – |
| Cc1ccc(C(=O)OCCc2sc[n+](Cc3ccccc3)c2C)cc1 | inactive: 7.44% | – |
| Cc1ccc(C(C#N)c2ccc(C(=O)c3ccc(F)cc3)cc2)cc1 (centres undefined) | – | inconclusive [inhibitor, partial curve] |
| O=C(Nc1cccc([N+](=O)[O-])c1)c1ccccc1 | – | inconclusive [inhibitor, single point] |
| CCOC(=O)c1c(C)c(C(=O)NCc2cccnc2)c(C)n1CC | inactive: 2.48% | – |
| CCc1ccc(CN(C)C(=O)c2cc(S(=O)(=O)N3CCOCC3)ccc2N2CCCC2)cc1 | inactive: -28.2% | – |

| Compound | activity change, negative = inhibition | Potency |
| --- | --- | --- |
| COc1ccccc1-n1cnc(N)c1C(=O)c1ccccc1 | – | inconclusive [inhibitor, partial curve] |
| CCC(Oc1ccccc1)C(=O)O/N=C(\N)c1ccc(OC)c(OC)c1 (centres undefined) | – | inconclusive [inhibitor, single point] |
| CCOc1ccc2nc(NC(=O)C3CCN(c4cnccn4)CC3)sc2c1 | – | inconclusive [inhibitor, single point] |
| Cc1cccc(C)c1NC(=O)CN(c1ccccn1)S(=O)(=O)c1ccc(F)cc1 | – | inconclusive [inhibitor, single point] |
| Cc1cc(=O)n2nc(N3CCCC(C(=O)Nc4ccc(C)c(C)c4)C3)sc2n1 (centres undefined) | – | inconclusive [inhibitor, full curve] |
| COc1ccc(NC(=O)c2cccc(Cl)c2)c[n+]1[O-] | – | active: 3.16 µM |
| CCc1ccc(C2c3[nH]c4ccccc4c3CCN2C(=O)c2cc(C)nn2C)cc1 (centres undefined) | – | inconclusive [inhibitor, single point] |
| Cc1c(-c2cccc(Cl)c2)nc2ccccc2c1C(=O)OCC(=O)Nc1ccc2c(c1)OCO2 | – | inconclusive [inhibitor, partial curve] |
| CN(CC1CCCO1)S(=O)(=O)c1ccc(C(=O)Nc2ccc3c(c2)OCO3)cc1 (centres undefined) | inactive: -13.3% | – |
| NC(=O)c1ccc(N2CCN(c3ccc(O)cc3)CC2)c([N+](=O)[O-])c1 | inconclusive: -49.8% [inhibitor] | – |
| Fc1cccc(-c2c(-c3ccccc3)ncc3cc(F)ccc23)c1 | – | inconclusive [inhibitor, partial curve, poor fit] |
| NNC(=O)Cn1c(COc2ccc(Cl)cc2)nc2ccccc21 | – | active: 11.2 µM |
| CN(C1=NC(=O)C(CC(=O)Nc2ccc(Br)cc2)S1)c1ccc(O)cc1 (centres undefined) | – | inconclusive [inhibitor, single point] |
| COc1ccccc1NS(=O)(=O)c1cc(NC(=O)CCC(=O)c2cccs2)ccc1Cl | – | inconclusive [inhibitor, single point] |
| CCCc1[nH]n(-c2ccc([N+](=O)[O-])cc2)c(=O)c1C=NCCc1c[nH]c2ccccc12 | – | inconclusive [inhibitor, partial curve] |
| C/C(=N\N=C(N)N)c1cc(Cl)ccc1Cl | – | inconclusive [inhibitor, single point] |
| COc1ccccc1/C=C1\CCCC2=C1Nc1nnnn1C2c1ccccc1OC (centres undefined) | – | inconclusive [inhibitor, single point] |
| O=C1c2ccccc2C(=O)c2c1cccc2N1CCOCC1 | – | active: 22.4 µM |
| FC(F)(F)c1cccc(NC(=S)NCc2ccc(Cl)cc2)c1 | – | inconclusive [inhibitor, single point] |
| CC1CN(C(=O)C(C)OC(=O)c2ccc3ncsc3c2)CC(C)O1 (centres undefined) | inactive: 8.56% | – |
| CCOc1ccc(-c2c(C(=O)N/N=C(\C)c3ccccc3OC)nnn2-c2nonc2N)cc1 | – | inconclusive [inhibitor, partial curve] |
| O=C1N[C@H](Cc2ccccc2)COC(=O)[C@@H](Cc2ccc(F)cc2)CC/C=C/C[C@H]1CC(=O)N(CCO)Cc1ccccc1 | – | inconclusive [inhibitor, single point] |
| Cc1ccc(-n2c(CC#N)n[nH]c2=S)c(C)c1 | – | inconclusive [inhibitor, single point] |
